# Data from the supplement of paper PMC10037445.
# Several values for one entry are separate records, joined by “and”; a condition that tells them apart may be missing. Identical values can stand only once. Whole data set: some 2,900 compounds, median “NF-kB SEAP reporter activity, fold change vs agonist alone” near 0.99, cut for the highest 2% near 2.6. Some of the results follow.
# How the values were obtained:
# RAW-Dual [1] = assay: NF-kB SEAP reporter activity, fold change vs agonist alone; higher = enhanced NF-kB activity
# Procedure, shortened: (§1)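 RAW-Dual macrophages were seeded in DMEM at 50,000 cells/well in 384-well plates, given 50 nL of library stock by pin tool, and given a PRR agonist 1 h later. Plates were held at 37 °C, 5% CO2 for 20 hours, after which supernatant was read for IRF by QuantiLuc luminescence and for NF-κB by QuantiBlue absorbance at 620 nm. Reporter activity is expressed as fold change over wells that received agonist alone. A well was called cytotoxic when IncuCyte confluency fell below 70% of agonist controls in both mask sets.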
# RAW-Dual [2] = assay: NF-kB SEAP reporter activity, fold change vs agonist alone; cytotoxicity flag (confluency mask): cytotoxic (confluency <70% of control); higher = enhanced NF-kB activity
# Procedure, shortened: as §1
# RAW-Dual [3] = assay: NF-kB SEAP reporter activity, fold change vs agonist alone; cytotoxicity flag (confluency mask): not cytotoxic; higher = enhanced NF-kB activity
# Procedure, shortened: as §1
# [4] = library stock concentration (final ~1000-fold dilution): 10 mM, cytotoxicity flag (confluency mask): not cytotoxic, agonist: Imiquimod (TLR7) […]
# [5] = library stock concentration (final ~1000-fold dilution): 10 mM, cytotoxicity flag (confluency mask): not cytotoxic, agonist: MPLA (TLR4) […]
# [6] = library stock concentration (final ~1000-fold dilution): 10 mM, cytotoxicity flag (confluency mask): cytotoxic (confluency <70% of control), agonist: Imiquimod (TLR7) […]
# [7] = library stock concentration (final ~1000-fold dilution): 10 mM, cytotoxicity flag (confluency mask): cytotoxic (confluency <70% of control), agonist: MPLA (TLR4) […]
# [8] = agonist: ODN 1826 (TLR9) 0.5 ug/mL
# [9] = agonist: Pam2CSK4 (TLR2/6) 0.1 ug/mL
# [10] = agonist: Pam3CSK4 (TLR2/1) 0.1 ug/mL
compound,measurement,setting,value
COCCCC/C(=N\OCCN)c1ccc(C(F)(F)F)cc1.O=C(O)/C=C\C(=O)O,NF-kB SEAP reporter activity,RAW-Dual [1]; [4],1.21
same,NF-kB SEAP reporter activity,RAW-Dual [1]; [5],1.16
Cc1ccc(F)c(NC(=O)Nc2ccc(-c3cccc4[nH]nc(N)c34)cc2)c1,NF-kB SEAP reporter activity,RAW-Dual [1]; [6],1.91
same,NF-kB SEAP reporter activity,RAW-Dual [1]; [7],1.72
Cc1ccc(F)c(NC(=O)Nc2ccc(-c3cccc4[nH]nc(N)c34)cc2)c1 (library stock concentration (final ~1000-fold dilution): 10 mM),NF-kB SEAP reporter activity,RAW-Dual [2]; agonist: LPS (TLR4) 0.1 ug/mL,1.06
same,NF-kB SEAP reporter activity,RAW-Dual [2]; [8],1.29
same,NF-kB SEAP reporter activity,RAW-Dual [2]; [9],0.316
same,NF-kB SEAP reporter activity,RAW-Dual [2]; [10],0.74
Cc1csc(-c2nc[nH]c2-c2ccc3ncsc3c2)n1.Cl (library stock concentration (final ~1000-fold dilution): 10 mM),NF-kB SEAP reporter activity,RAW-Dual [3]; agonist: LPS (TLR4) 0.1 ug/mL,2.26
same,NF-kB SEAP reporter activity,RAW-Dual [3]; [8],1.18
same,NF-kB SEAP reporter activity,RAW-Dual [3]; [9],1.24
same,NF-kB SEAP reporter activity,RAW-Dual [3]; [10],1.47
Cc1csc(-c2nc[nH]c2-c2ccc3ncsc3c2)n1.Cl,NF-kB SEAP reporter activity,RAW-Dual [1]; [4],0.927
same,NF-kB SEAP reporter activity,RAW-Dual [1]; [5],1.34
CC(=O)c1cc2c(o1)C(=O)c1ccccc1C2=O,NF-kB SEAP reporter activity,RAW-Dual [1]; [6],1.37
same,NF-kB SEAP reporter activity,RAW-Dual [1]; [7],0.668
CC(=O)c1cc2c(o1)C(=O)c1ccccc1C2=O (library stock concentration (final ~1000-fold dilution): 10 mM),NF-kB SEAP reporter activity,RAW-Dual [2]; agonist: LPS (TLR4) 0.1 ug/mL,0.283
same,NF-kB SEAP reporter activity,RAW-Dual [2]; [8],1.77
same,NF-kB SEAP reporter activity,RAW-Dual [2]; [9],0.0769
same,NF-kB SEAP reporter activity,RAW-Dual [2]; [10],0.132
CCN(CC)CC(=O)Nc1c(C)cccc1C (library stock concentration (final ~1000-fold dilution): 10 mM),NF-kB SEAP reporter activity,RAW-Dual [3]; agonist: LPS (TLR4) 0.1 ug/mL,1.1 and 0.995
same,NF-kB SEAP reporter activity,RAW-Dual [3]; [8],1.13 and 1.09
same,NF-kB SEAP reporter activity,RAW-Dual [3]; [9],1.12 and 1.14
same,NF-kB SEAP reporter activity,RAW-Dual [3]; [10],1.02 and 1.09
CN(c1ccccc1CNc1nc(Nc2ccc3c(c2)CC(=O)N3)ncc1C(F)(F)F)S(C)(=O)=O,NF-kB SEAP reporter activity,RAW-Dual [1]; [6],0.15
same,NF-kB SEAP reporter activity,RAW-Dual [1]; [7],0.261
CN(c1ccccc1CNc1nc(Nc2ccc3c(c2)CC(=O)N3)ncc1C(F)(F)F)S(C)(=O)=O (library stock concentration (final ~1000-fold dilution): 10 mM),NF-kB SEAP reporter activity,RAW-Dual [2]; agonist: LPS (TLR4) 0.1 ug/mL,0.321
same,NF-kB SEAP reporter activity,RAW-Dual [2]; [8],0.221
same,NF-kB SEAP reporter activity,RAW-Dual [2]; [9],0.0676
same,NF-kB SEAP reporter activity,RAW-Dual [2]; [10],0.137
S=C(S)N1CCCC1 (library stock concentration (final ~1000-fold dilution): 10 mM),NF-kB SEAP reporter activity,RAW-Dual [2]; agonist: LPS (TLR4) 0.1 ug/mL,1.39
same,NF-kB SEAP reporter activity,RAW-Dual [2]; [8],1.63
same,NF-kB SEAP reporter activity,RAW-Dual [2]; [9],1.15
same,NF-kB SEAP reporter activity,RAW-Dual [2]; [10],1.5
S=C(S)N1CCCC1,NF-kB SEAP reporter activity,RAW-Dual [1]; [6],1.33
same,NF-kB SEAP reporter activity,RAW-Dual [1]; [7],2.13
COc1cc(N2CCN(C)CC2)ccc1Nc1ncc2c(n1)N(C)c1ccccc1C(=O)N2 (library stock concentration (final ~1000-fold dilution): 10 mM),NF-kB SEAP reporter activity,RAW-Dual [3]; agonist: LPS (TLR4) 0.1 ug/mL,0.966
same,NF-kB SEAP reporter activity,RAW-Dual [3]; [8],0.514
same,NF-kB SEAP reporter activity,RAW-Dual [3]; [9],1.08
same,NF-kB SEAP reporter activity,RAW-Dual [3]; [10],1.61
COc1cc(N2CCN(C)CC2)ccc1Nc1ncc2c(n1)N(C)c1ccccc1C(=O)N2,NF-kB SEAP reporter activity,RAW-Dual [1]; [4],0.928
same,NF-kB SEAP reporter activity,RAW-Dual [1]; [5],1.03
C[N+]1(C)CCC[C@H]1C(=O)O,NF-kB SEAP reporter activity,RAW-Dual [1]; [4],0.952
same,NF-kB SEAP reporter activity,RAW-Dual [1]; [5],0.985
C[N+]1(C)CCC[C@H]1C(=O)O (library stock concentration (final ~1000-fold dilution): 10 mM),NF-kB SEAP reporter activity,RAW-Dual [3]; agonist: LPS (TLR4) 0.1 ug/mL,1.08
same,NF-kB SEAP reporter activity,RAW-Dual [3]; [8],1.08
same,NF-kB SEAP reporter activity,RAW-Dual [3]; [9],1.16
same,NF-kB SEAP reporter activity,RAW-Dual [3]; [10],1.08
O=c1oc2c(O)c(O)cc3c(=O)oc4c(O)c(O)cc1c4c23,NF-kB SEAP reporter activity,"RAW-Dual [1]; library stock concentration (final ~1000-fold dilution): 2 mM, cytotoxicity flag (confluency mask): not cytotoxic, agonist: Imiquimod (TLR7) […]",0.988
same,NF-kB SEAP reporter activity,"RAW-Dual [1]; library stock concentration (final ~1000-fold dilution): 2 mM, cytotoxicity flag (confluency mask): not cytotoxic, agonist: MPLA (TLR4) […]",1.05
O=c1oc2c(O)c(O)cc3c(=O)oc4c(O)c(O)cc1c4c23 (library stock concentration (final ~1000-fold dilution): 2 mM),NF-kB SEAP reporter activity,RAW-Dual [3]; agonist: LPS (TLR4) 0.1 ug/mL,1.36
same,NF-kB SEAP reporter activity,RAW-Dual [3]; [8],1.05
same,NF-kB SEAP reporter activity,RAW-Dual [3]; [9],1.03
same,NF-kB SEAP reporter activity,RAW-Dual [3]; [10],0.9
CONC(=O)Nc1ccc(-c2sc3c(c2CN(C)C)c(=O)n(-c2ccc(OC)nn2)c(=O)n3Cc2c(F)cccc2F)cc1,NF-kB SEAP reporter activity,RAW-Dual [1]; [6],2.02
same,NF-kB SEAP reporter activity,RAW-Dual [1]; [7],2.5
CONC(=O)Nc1ccc(-c2sc3c(c2CN(C)C)c(=O)n(-c2ccc(OC)nn2)c(=O)n3Cc2c(F)cccc2F)cc1 (library stock concentration (final ~1000-fold dilution): 10 mM),NF-kB SEAP reporter activity,RAW-Dual [2]; agonist: LPS (TLR4) 0.1 ug/mL,3.39
same,NF-kB SEAP reporter activity,RAW-Dual [2]; [8],0.26
same,NF-kB SEAP reporter activity,RAW-Dual [2]; [9],1.01
same,NF-kB SEAP reporter activity,RAW-Dual [2]; [10],1.88
N=C(N)c1ccc(OCCCCCOc2ccc(C(=N)N)cc2)cc1.O=S(=O)(O)CCO.O=S(=O)(O)CCO (library stock concentration (final ~1000-fold dilution): 10 mM),NF-kB SEAP reporter activity,RAW-Dual [3]; agonist: LPS (TLR4) 0.1 ug/mL,3.88
same,NF-kB SEAP reporter activity,RAW-Dual [3]; [8],1.22
same,NF-kB SEAP reporter activity,RAW-Dual [3]; [9],0.758
same,NF-kB SEAP reporter activity,RAW-Dual [3]; [10],1.06
N=C(N)c1ccc(OCCCCCOc2ccc(C(=N)N)cc2)cc1.O=S(=O)(O)CCO.O=S(=O)(O)CCO,NF-kB SEAP reporter activity,RAW-Dual [1]; [4],1.39
same,NF-kB SEAP reporter activity,RAW-Dual [1]; [5],1.89
O=C(O)CC(C(=O)O)N1C(=O)/C(=C2/C(=O)Nc3ccc(Br)cc32)SC1=S (stereo not drawn),NF-kB SEAP reporter activity,RAW-Dual [1]; [4],1.33
same,NF-kB SEAP reporter activity,RAW-Dual [1]; [5],1.72
O=C(O)CC(C(=O)O)N1C(=O)/C(=C2/C(=O)Nc3ccc(Br)cc32)SC1=S (stereo not drawn) (library stock concentration (final ~1000-fold dilution): 10 mM),NF-kB SEAP reporter activity,RAW-Dual [3]; agonist: LPS (TLR4) 0.1 ug/mL,0.98
same,NF-kB SEAP reporter activity,RAW-Dual [3]; [8],1.56
same,NF-kB SEAP reporter activity,RAW-Dual [3]; [9],1.02
same,NF-kB SEAP reporter activity,RAW-Dual [3]; [10],1.06
CNC(=O)c1ccccc1Nc1cc(Nc2ccc(N3CCOCC3)cc2OC)ncc1C(F)(F)F (library stock concentration (final ~1000-fold dilution): 10 mM),NF-kB SEAP reporter activity,RAW-Dual [3]; agonist: LPS (TLR4) 0.1 ug/mL,0.259
same,NF-kB SEAP reporter activity,RAW-Dual [3]; [8],0.552
same,NF-kB SEAP reporter activity,RAW-Dual [3]; [9],0.324
same,NF-kB SEAP reporter activity,RAW-Dual [3]; [10],0.207
CNC(=O)c1ccccc1Nc1cc(Nc2ccc(N3CCOCC3)cc2OC)ncc1C(F)(F)F,NF-kB SEAP reporter activity,RAW-Dual [1]; [4],0.68
same,NF-kB SEAP reporter activity,RAW-Dual [1]; [5],0.407
